# Measured values from PubChem BioAssay (NCATS).
# “And” between values parts separate entries of the source, which are not always exact repeats. Equal entries are not always repeated. The inconclusive results got no clear call from the source; some entries with a clear call stand among them for comparison. For some of these results: Where the call is inconclusive, the potency comes from a doubtful curve fit. For some of these results: A note “side channel” means that the fit belongs to a control or component signal, not to the main read-out. The source made the active and inactive calls. Unless noted, calls follow the shape of the dose curve; as a rule, active = well fitted curve in the direction sought with a large enough effect; inconclusive = small, poorly fitted or top-dose-only effect, or another doubt; inactive = no such curve, though single readings can be large; an effect the other way counts as inactive or inconclusive. *1 amine or outer side, *2 acyl side, *3 side chain or, on linkers, in order; H or OH if unused. Where a SMILES comes first, the peptide text is derived from it. Bridges are numbered along the chain shown (N, C = ends). Roman numbers before positions name the chains, in order. [ ]: non-standard residue; d: D form. Actinocin(9to1) = Cc1c2oc3c(C)ccc(C(=O)[*:1])c3nc-2c(C(=O)[*:2])c(N)c1=O; NMeV = CN[C@H](C(=O)O)C(C)C; Sar = CNCC(=O)O
# Experiments:
# [1] = target: Atrial natriuretic peptide receptor 1 (Homo sapiens) (UniProt P16066); assay: Natriuretic polypeptide receptor (hNpr1) antagonism - Pilot screen (AID 1347049; calls by dose curve;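 also: HEK293 cells with hNpr1 and GloSensor cGMP luciferase stimulated by 0.1 nM hNppA; agonist-evoked cGMP luminescence read 20 min after hNppA addition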)
# Chain of UniProt P16066 (P16066 whole entry, looked up): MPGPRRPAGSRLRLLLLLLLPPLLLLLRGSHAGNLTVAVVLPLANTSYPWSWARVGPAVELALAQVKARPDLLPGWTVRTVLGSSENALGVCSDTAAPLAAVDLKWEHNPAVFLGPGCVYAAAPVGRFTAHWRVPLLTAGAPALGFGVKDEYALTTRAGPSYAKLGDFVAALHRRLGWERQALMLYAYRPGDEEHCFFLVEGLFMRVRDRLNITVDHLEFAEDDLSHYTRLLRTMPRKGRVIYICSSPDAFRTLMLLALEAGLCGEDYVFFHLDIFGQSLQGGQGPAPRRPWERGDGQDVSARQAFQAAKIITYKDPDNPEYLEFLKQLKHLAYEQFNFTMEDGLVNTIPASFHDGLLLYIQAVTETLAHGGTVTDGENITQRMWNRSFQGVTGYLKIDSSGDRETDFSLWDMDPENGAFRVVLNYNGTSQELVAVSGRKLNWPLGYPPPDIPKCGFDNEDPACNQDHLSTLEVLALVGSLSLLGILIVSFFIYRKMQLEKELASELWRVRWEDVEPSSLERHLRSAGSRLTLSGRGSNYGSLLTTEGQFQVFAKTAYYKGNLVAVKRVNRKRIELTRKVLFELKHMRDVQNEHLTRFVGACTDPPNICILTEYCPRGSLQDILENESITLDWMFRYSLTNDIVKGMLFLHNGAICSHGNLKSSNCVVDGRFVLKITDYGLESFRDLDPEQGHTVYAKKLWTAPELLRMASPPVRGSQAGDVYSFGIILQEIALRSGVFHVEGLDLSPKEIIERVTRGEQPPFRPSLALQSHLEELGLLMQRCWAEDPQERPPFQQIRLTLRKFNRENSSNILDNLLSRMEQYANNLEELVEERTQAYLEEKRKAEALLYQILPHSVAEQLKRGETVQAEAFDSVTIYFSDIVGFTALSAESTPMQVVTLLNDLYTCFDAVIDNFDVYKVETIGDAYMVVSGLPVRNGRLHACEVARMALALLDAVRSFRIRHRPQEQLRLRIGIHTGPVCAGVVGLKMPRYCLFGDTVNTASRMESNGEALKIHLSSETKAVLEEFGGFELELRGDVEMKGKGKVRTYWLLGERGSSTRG
# Summary of the method: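 Receptor antagonism read as cGMP-dependent luminescence in hNpr1/pGS-40F HEK293 cells: pre-read after 30 min compound exposure, post-read 20 min after hNppA agonist at 0.1 nM final, all at room temperature, protected from light; A-71915 titration as control.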
# [2] = target: T1, Tyrosine-protein phosphatase non-receptor type substrate 1 (Homo sapiens) + Leukocyte surface antigen CD47 (Homo sapiens) (UniProt P78324+Q08722); assay: CD47-SIRPalpha protein protein interaction - LANCE assay qHTS validation (AID 1347057; active = well fitted curve in the direction sought with a large enough effect in the signal ratio, with a control signal flat, not every such curve was filed as active; inconclusive = small, poorly fitted or top-dose-only effect, or effect the other way, or a change in a side signal; inactive = no such curve, though single readings can be large or run the other way; the % refers to the signal ratio)
# T1 sequence (P78324 whole entry, looked up, the tested form may be a part): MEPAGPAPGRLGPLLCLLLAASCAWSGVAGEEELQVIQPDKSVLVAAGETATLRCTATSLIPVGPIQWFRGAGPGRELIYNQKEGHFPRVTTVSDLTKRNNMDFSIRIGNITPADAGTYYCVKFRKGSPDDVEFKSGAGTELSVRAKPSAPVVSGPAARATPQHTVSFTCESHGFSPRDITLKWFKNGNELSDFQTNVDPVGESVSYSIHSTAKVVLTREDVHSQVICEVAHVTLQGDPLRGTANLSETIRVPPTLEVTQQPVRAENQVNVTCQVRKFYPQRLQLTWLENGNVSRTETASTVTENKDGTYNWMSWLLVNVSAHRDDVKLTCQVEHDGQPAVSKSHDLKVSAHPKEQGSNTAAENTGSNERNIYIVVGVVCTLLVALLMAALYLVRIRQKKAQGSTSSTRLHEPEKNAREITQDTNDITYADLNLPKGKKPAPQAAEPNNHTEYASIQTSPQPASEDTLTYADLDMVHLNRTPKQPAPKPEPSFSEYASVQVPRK
# T1 sequence (Q08722 whole entry, looked up, the tested form may be a part): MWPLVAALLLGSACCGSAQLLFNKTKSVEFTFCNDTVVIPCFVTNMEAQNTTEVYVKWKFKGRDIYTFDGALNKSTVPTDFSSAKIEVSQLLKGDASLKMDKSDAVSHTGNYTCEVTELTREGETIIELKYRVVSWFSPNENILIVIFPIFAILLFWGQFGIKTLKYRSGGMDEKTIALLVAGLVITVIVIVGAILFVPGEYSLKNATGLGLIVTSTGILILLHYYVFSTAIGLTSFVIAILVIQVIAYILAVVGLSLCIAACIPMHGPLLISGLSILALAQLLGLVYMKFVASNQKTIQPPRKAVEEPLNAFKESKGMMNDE
# Summary of the method: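 Inhibition of soluble CD47/SIRPalpha ectodomain association by titrated compounds, measured as 665/615 nm time-resolved FRET ratio after sequential 30 min room-temperature incubations.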
# [3] = qHTS Assay for Identifying Gametocytocidal Compounds (AID 743244);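 as to max response: % is scaled to controls: 0 for no effect and ±100 for the full control effect; actives lower the fluorescent signal which means gametocytes are killed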; conditions: P. falciparum 3D7 stage III-V gametocytes, alamarBlue, 72 h; max response: active compounds read low
# Summary of the method: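 P. falciparum 3D7 stage III–V gametocytes (20,000 cells/well) were exposed to compounds for 72 h at 37 °C, 5% CO2. AlamarBlue was then added for 24 h; decreased resorufin fluorescence (Ex 525/Em 598 nm) indicated loss of viability.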
# [4] = qHTS assay to identify small molecule inhibitors of chordoma cells - UCH-1 (AID 1259355); also: nearly all actives have a fitted effect of over 55% in size; as to potency: series mostly up to about 46 µM
# Summary of the method: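 800 cells/well, overnight attach; compounds pinned at 15 concs, then auranofin/camptothecin/doxorubicin/rubitecan/topotecan combo added; 48hr 37 C, 5% CO2; CellTiter-Glo, 30min RT, luminescence.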
# [5] = P-glycoprotein substrates identified in KB-8-5-11 adenocarcinoma cell line, qHTS therapeutic library screen (AID 1346987); also: nearly all actives have a fitted effect of over 65% in size
# Summary of the method: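 Compounds are pinned in dose-response onto KB-8-5-11 cells (500 cells/well, colchicine-free medium) and left 72 h at 37 degree C. CellTiter-Glo luminescence then yields AC50 values.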
# [6] = NS1 protein of Zika virus - qHTS assay to identify small molecule inhibitors in human HEK 293 cells (AID 1347053); also: nearly all actives have a fitted effect of over 55% in size
# Summary of the method: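 In this cell-based screen, HEK 293 cultures received compound for one hour before Zika MR766 at MOI = 0.5. NS1 was quantified 24 hours later by TR-FRET, normalized to virus-free wells and infected wells.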
# [7] = qHTS assay for cell viability of HEK293 cells (AID 743288); conditions: ATP luminescence (CellTiter-Glo), 18 h; also: nearly all actives have a fitted effect of over 50% in size
# Summary of the method: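 Readout is luciferase-coupled ATP content (CellTiter-Glo luminescence, 30 min room temperature) as a measure of metabolically competent cells. Parental HEK293 cells were plated 5 h or more before compound addition, then treated 18 h at 37 C.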
# [8] = target: T1, Tyrosine-protein phosphatase non-receptor type substrate 1 (Homo sapiens) + Leukocyte surface antigen CD47 (Homo sapiens); assay: CD47-SIRPalpha protein protein interaction - HTRF assay qHTS validation (AID 1347058; active = well fitted curve in the direction sought with a large enough effect in the signal ratio, not every such curve was filed as active; inconclusive = small, poorly fitted or top-dose-only effect, or effect the other way, or a change in a side signal; inactive = no such curve, though single readings can be large or run the other way; the % refers to the signal ratio)
# Summary of the method: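 Soluble extracellular domains (6His-CD47, Avi-tag-biotinylated SIRPalpha) in PBS pH 7.4 with 0.05% IGEPAL CA-630. Compounds were preincubated 30 min at RT with CD47 and anti-His-Eu, then SIRPalpha and SAV-XL665 were added. TR-FRET 665/615 ratio.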
# [9] = qHTS assay for small molecule agonists of the antioxidant response element (ARE) signaling pathway measured by Nrf2-dependant transcriptional activity - cell viability counter screen (AID 720653; active = well fitted curve in the direction sought with a large enough effect in the repeat runs; inconclusive = weak or mixed curves; inactive = no such curve, though single readings can be large; an effect the other way counts as inactive or inconclusive; as to max response: % is scaled to controls: 0 for no effect and ±100 for the full control effect); conditions: ARE-bla HepG2 viability, CellTiter-Glo ATP luminescence, 16 h; max response: active compounds read low
# Summary of the method: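 Cytotoxicity counter screen: intracellular ATP quantified by CellTiter-Glo luminescence in the same ARE-bla HepG2 plates, after 16 h compound exposure and a 2 h beta-lactamase substrate step.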
# [10] = qHTS assay for cell viability of the p53RE-bla HCT-116 cell line (AID 743292); also: nearly all actives have a fitted effect of over 55% in size
# Summary of the method: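 Quantitative high-throughput format: compounds in DMSO were pinned onto p53RE-bla HCT-116 cells (4,000/well) and incubated 16 h at 37 C. Total intracellular ATP, read by CellTiter-Glo luminescence, reflects viable cell number.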
# [11] = Natriuretic polypeptide receptor (hNpr1) antagonism - Pilot counterscreen GloSensor control cell line (AID 1347045; calls by dose curve)
# Summary of the method: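 Control counterscreen: luciferase cGMP-biosensor HEK293 cells (no Npr1) received compound for 30 min at room temperature after GloSensor substrate loading. Luminescence was measured before and 20 min after soluble guanylyl cyclase activation by 50 uM nitroprusside.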
# [12] = target: Atrial natriuretic peptide receptor 2 (Homo sapiens) (UniProt P20594); assay: Natriuretic polypeptide receptor (hNpr2) antagonism - Pilot subtype selectivity assay (AID 1347050; calls by dose curve)
# Chain of UniProt P20594 (P20594 whole entry, looked up): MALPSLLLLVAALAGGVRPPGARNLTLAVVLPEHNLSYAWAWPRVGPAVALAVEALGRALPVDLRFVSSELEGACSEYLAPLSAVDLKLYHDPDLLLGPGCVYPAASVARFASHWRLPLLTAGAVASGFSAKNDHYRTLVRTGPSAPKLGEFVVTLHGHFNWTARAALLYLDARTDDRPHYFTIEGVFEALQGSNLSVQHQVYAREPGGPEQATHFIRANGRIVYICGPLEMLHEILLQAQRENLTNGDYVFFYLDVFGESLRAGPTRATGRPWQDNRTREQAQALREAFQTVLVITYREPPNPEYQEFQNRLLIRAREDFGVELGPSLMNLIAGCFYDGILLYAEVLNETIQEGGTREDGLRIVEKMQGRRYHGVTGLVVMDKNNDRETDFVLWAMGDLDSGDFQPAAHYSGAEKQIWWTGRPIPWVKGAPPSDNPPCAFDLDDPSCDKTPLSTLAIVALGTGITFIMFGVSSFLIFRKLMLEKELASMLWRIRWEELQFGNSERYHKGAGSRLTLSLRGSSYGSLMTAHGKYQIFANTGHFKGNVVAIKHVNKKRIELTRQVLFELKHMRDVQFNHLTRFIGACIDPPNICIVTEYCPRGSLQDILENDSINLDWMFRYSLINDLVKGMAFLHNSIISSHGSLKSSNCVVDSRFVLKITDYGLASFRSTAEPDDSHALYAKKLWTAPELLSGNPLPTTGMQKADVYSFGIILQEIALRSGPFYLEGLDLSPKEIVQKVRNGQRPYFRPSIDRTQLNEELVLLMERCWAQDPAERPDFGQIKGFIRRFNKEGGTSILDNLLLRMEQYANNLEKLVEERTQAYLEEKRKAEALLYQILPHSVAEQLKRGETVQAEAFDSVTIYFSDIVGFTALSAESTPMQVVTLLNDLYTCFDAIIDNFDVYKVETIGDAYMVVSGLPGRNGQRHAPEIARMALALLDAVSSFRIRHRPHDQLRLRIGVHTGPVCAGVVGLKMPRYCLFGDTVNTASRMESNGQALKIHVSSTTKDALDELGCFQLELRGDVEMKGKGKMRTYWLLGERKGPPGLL
# Summary of the method: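 Antagonist mode: compounds (LOPAC1280, seven 1:5 dilutions) added 30 min before 1 nM hNppC stimulation of hNpr2-HEK293 cGMP-sensor cells; luminescence read before and 20 min after agonist at ambient temperature.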
# Potency is read from the fitted curve at half-maximal effect; tags tell the direction and shape of the fitted curve.
smiles,measurement,setting,value
CCOC(=O)C1=C(C)NC(C)=C(C(=O)OC)C1c1cccc([N+](=O)[O-])c1 (stereo not given),Potency,[1],"inconclusive: 0.0213 µM [inhibitor, full curve, poor fit]"
NC(=O)c1ncn([C@@H]2O[C@H](CO)[C@@H](O)[C@H]2O)c1O,Potency,[1],inactive
CC(CN(C)C)CN1c2ccccc2CCc2ccccc21 (stereo not given),Potency,[2],inactive
CC(C)N=c1cc2n(-c3ccc(Cl)cc3)c3ccccc3nc-2cc1Nc1ccc(Cl)cc1,Potency,[3],"inconclusive: 7.94 µM [inhibitor, partial curve]"
same,Potency,[4],"inconclusive: 12.6 µM [cytotoxic, single point]"
same,Potency,[5],"inconclusive: 7.85 µM [inhibitor, single point]"
N[C@H](Cc1c[nH]c2ccccc12)C(=O)O,Potency,[3],"inconclusive: 20 µM [inhibitor, single point]"
same,Potency,[4],"inconclusive: 25.1 µM [cytotoxic, single point]"
same,Potency,[5],"inconclusive: 20.6 µM [inhibitor, single point]"
CC(C(=O)O)c1ccc(CC2CCCC2=O)cc1 (stereo not given),Potency,[4],inactive
same,Potency,[6],inactive
CO[C@H]1C[C@@H]2CC[C@@H](C)[C@@](O)(O2)C(=O)C(=O)N2CCCC[C@H]2C(=O)O[C@H]([C@H](C)C[C@@H]2CC[C@@H](OCCO)[C@H](OC)C2)CC(=O)[C@H](C)/C=C(\C)[C@@H](O)[C@@H](OC)C(=O)[C@H](C)C[C@H](C)/C=C/C=C/C=C/1C,Potency,[3],"inconclusive: 25.1 µM [inhibitor, single point]"
same,Potency,[4],"inconclusive: 20 µM [cytotoxic, partial curve, poor fit]"
same,Potency,[5],"inconclusive: 20.6 µM [inhibitor, partial curve, poor fit]"
OC[C@H]1O[C@@H](n2cnc3c(=S)nc[nH]c32)[C@H](O)[C@@H]1O,Potency,[4],"inconclusive: 1.41 µM [cytotoxic, full curve, poor fit]"
same,Potency,[6],"inconclusive: 10 µM [inhibitor, partial curve, poor fit]"
CN(C)C(=S)SC(=S)N(C)C,Potency,[7],"inconclusive: 44.7 µM [cytotoxic, partial curve]"
same,Potency,[4],"inconclusive: 1.78 µM [cytotoxic, full curve, poor fit]"
same,Potency,[6],"inconclusive: 5.01 µM [inhibitor, full curve, poor fit]"
CC(=O)OCC1=C(C(=O)O)N2C(=O)[C@@H](NC(=O)Cc3cccs3)[C@H]2SC1,Potency,[4],inactive
same,Potency,[8],inactive
Oc1ccc(Cl)cc1Sc1cc(Cl)ccc1O,Potency,[7],"inconclusive: 44.7 µM [cytotoxic, partial curve]"
same,Potency,[4],"inconclusive: 31.6 µM [cytotoxic, single point]"
same,Potency,[5],"inconclusive: 16.4 µM [inhibitor, partial curve, poor fit]"
CN(C)CCCN1c2ccccc2C(C)(C)c2ccccc21,Potency,[3],"inconclusive: 15.8 µM [inhibitor, single point]"
same,Potency,[4],"inconclusive: 8.91 µM [cytotoxic, partial curve, poor fit]"
same,Potency,[5],"inconclusive: 14.6 µM [inhibitor, single point]"
COc1cc(C=C2CCC/C(=C\c3ccc(O)c(OC)c3)C2=O)ccc1O,Potency,[4],active: 31.6 µM
same,Potency,[6],"inconclusive: 35.5 µM [inhibitor, single point]"
CCCc1cc(C(N)=S)ccn1,Potency,[4],inactive
same,Potency,[6],inactive
Cc1c(N(C)CS(=O)(=O)O)c(=O)n(-c2ccccc2)n1C,Potency,[4],"inconclusive: 0.0016 µM [cytotoxic, full curve, poor fit]"
same,Potency,[6],inactive
CCN1CCc2nc(N)oc2CC1,Potency,[4],inactive
same,Potency,[8],"inconclusive: 26.1 µM [side channel, falling, single point]"
"Cc1c2oc3c(C)ccc(C(=O)N[C@@H]4C(=O)N[C@H](C(C)C)C(=O)N5CCC[C@H]5C(=O)N(C)CC(=O)N(C)[C@@H](C(C)C)C(=O)O[C@@H]4C)c3nc-2c(C(=O)N[C@@H]2C(=O)N[C@H](C(C)C)C(=O)N3CCC[C@H]3C(=O)N(C)CC(=O)N(C)[C@@H](C(C)C)C(=O)O[C@@H]2C)c(N)c1=O (I: T[dV]P[Sar][NMeV] / II: T[dV]P[Sar][NMeV]; ester I:1-I:C, II:1-II:C; linker I:N-II:N via Actinocin(9to1))",Potency,[3],active: 0.0708 µM
same,Potency,[7],"inconclusive: 282 nM [cytotoxic, full curve, poor fit] and inconclusive: 39.8 nM [cytotoxic, full curve]"
same,Potency,[4],"inconclusive: 0.01 µM [cytotoxic, full curve]"
same,Potency,[5],"inconclusive: 18.4 µM [inhibitor, partial curve]"
CC1(C)C(C=C(Cl)Cl)C1C(=O)OCc1cccc(Oc2ccccc2)c1 (stereo not given),max response,[9],inactive: -3.1% [middle of 4 runs]
same,Potency,[10],inactive
same,Potency,[4],"inconclusive: 35.5 µM [cytotoxic, single point]"
COc1cc(/C=C/C(=O)CC(=O)/C=C/c2ccc(O)c(OC)c2)ccc1O,Potency,[3],"inconclusive: 35.5 µM [inhibitor, single point]"
same,Potency,[7],"inconclusive: 28.2 µM [cytotoxic, partial curve, poor fit]"
same,Potency,[10],"inconclusive: 44.7 µM [cytotoxic, partial curve, poor fit]"
same,Potency,[4],"inconclusive: 28.2 µM [cytotoxic, single point]"
same,Potency,[5],"inconclusive: 29.1 µM [inhibitor, single point]"
CC[C@H]1CN2CCc3cc(OC)c(OC)cc3[C@H]2C[C@@H]1C[C@@H]1NCCc2cc(OC)c(OC)cc21,Potency,[4],"inconclusive: 1.26 µM [cytotoxic, full curve]"
same,Potency,[6],active: 0.118 µM
O=C1N=C(O)CN1/N=C/c1ccc(-c2ccc([N+](=O)[O-])cc2)o1,Potency,[4],"inconclusive: 35.5 µM [cytotoxic, single point]"
same,Potency,[2],"inconclusive: 16.5 µM [side channel, falling, single point]"
same,Potency,[8],"inconclusive: 7.36 µM [side channel, falling, partial curve]"
CC(C)(C)CC(C)(C)c1ccc(O)c(Cc2ccc(Cl)cc2Cl)c1,Potency,[3],"inconclusive: 22.4 µM [inhibitor, single point]"
same,Potency,[4],"inconclusive: 35.5 µM [cytotoxic, partial curve, poor fit]"
same,Potency,[5],active: 23.1 µM
COCC(=O)O[C@]1(CCN(C)CCCc2nc3ccccc3[nH]2)CCc2cc(F)ccc2[C@@H]1C(C)C,Potency,[3],active: 2.64 µM and active: 1.41 µM
same,Potency,[4],active: 31.6 µM
same,Potency,[11],active: 26.1 µM
same,Potency,[12],"inconclusive: 23.3 µM [inhibitor, single point]"
same,Potency,[6],"inconclusive: 35.5 µM [inhibitor, single point]"
Oc1c(Cl)cc(Cl)c(Cl)c1Cc1c(O)c(Cl)cc(Cl)c1Cl,Potency,[9],"inconclusive: 15.8 µM [cytotoxic, full curve] and inconclusive: 11.2 µM [cytotoxic, full curve]"
same,Potency,[7],"inconclusive: 28.2 µM [cytotoxic, partial curve] and inconclusive: 35.5 µM [cytotoxic, partial curve]"
same,Potency,[4],active: 25.1 µM
COCc1c(C(C)C)nc(C(C)C)c(/C=C/[C@@H](O)C[C@@H](O)CC(=O)O)c1-c1ccc(F)cc1,Potency,[4],"inconclusive: 1.12 µM [cytotoxic, full curve, poor fit]"
same,Potency,[6],inactive
CC/C(=C(/CC)c1ccc(O)cc1)c1ccc(O)cc1,Potency,[10],"inconclusive: 79.4 µM [cytotoxic, single point]"
same,Potency,[4],inactive
same,Potency,[5],"inconclusive: 20.6 µM [inhibitor, single point]"
CCc1ccc(C(=O)C(C)CN2CCCCC2)cc1 (stereo not given),Potency,[3],"inconclusive: 25.1 µM [inhibitor, single point]"
same,Potency,[4],inactive
same,Potency,[6],inactive
COC(=O)[C@H]1[C@H]2C[C@@H]3c4[nH]c5cc(OC)ccc5c4CCN3C[C@H]2C[C@@H](OC(=O)/C=C/c2cc(OC)c(OC)c(OC)c2)[C@@H]1OC,max response,[3],inactive: -0.068%
same,Potency,[4],inactive
C[C@H]1O[C@@H](O[C@H]2[C@@H](O)C[C@H](O[C@H]3[C@@H](O)C[C@H](O[C@H]4CC[C@@]5(C)[C@H](CC[C@@H]6[C@@H]5C[C@@H](O)[C@]5(C)[C@@H](C7=CC(=O)OC7)CC[C@]65O)C4)O[C@@H]3C)O[C@@H]2C)C[C@H](O)[C@@H]1O,Potency,[9],"inconclusive: 100 nM [cytotoxic, full curve] and inconclusive: 63.1 nM [cytotoxic, full curve]"
same,Potency,[7],active: 126 nM and active: 50.1 nM
same,Potency,[4],active: 0.355 µM
Cc1ncc(CSSCc2cnc(C)c(O)c2CO)c(CO)c1O,Potency,[4],"inconclusive: 5.01 µM [rising, partial curve, poor fit]"
same,Potency,[6],inactive
CC(=O)O[C@]1(C(C)=O)CC[C@H]2[C@@H]3C[C@H](C)C4=CC(=O)CC[C@]4(C)[C@H]3CC[C@@]21C,Potency,[3],"inconclusive: 35.5 µM [inhibitor, single point]"
same,Potency,[7],"inconclusive: 56.2 µM [cytotoxic, partial curve, poor fit] and inconclusive: 22.4 µM [cytotoxic, partial curve, poor fit]"
same,Potency,[4],"inconclusive: 20 µM [cytotoxic, partial curve, poor fit]"
same,Potency,[5],"inconclusive: 16.4 µM [inhibitor, single point]"
Cc1cc(=O)n(-c2ccccc2)n1C,max response,[3],inactive: 18.5%
same,Potency,[4],"inconclusive: 0.005 µM [cytotoxic, full curve, poor fit]"
same,Potency,[5],inactive
